Experimental data from patent publication US20050002959A1 (GlaxoSmithKline, published 2005).
Where “and” joins values, the source holds several entries; their conditions need not be identical. Identical values can stand only once.

How the values were obtained:
[1] = target: T1, recombinant human IL4 (non-glycosylated, produced in E. coli) (human, UniProt P05112 25-153); test: cell-based or functional assay
T1 sequence (looked up): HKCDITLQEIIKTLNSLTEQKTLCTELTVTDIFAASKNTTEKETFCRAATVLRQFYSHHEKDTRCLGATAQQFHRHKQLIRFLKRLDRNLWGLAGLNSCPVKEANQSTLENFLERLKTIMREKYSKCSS

[2] = target: T1, recombinant human IL4 …; test: titration microcalorimetry, calculated for pH 7.4, 150 mM NaCl, 25° C. by the Gibbs-Helmholz equation
Experimental: (§1) The affinity and detailed thermodynamics of IL4 binding to humanized MAb 3B9 and murine 3B9 (Example 1) were determined by titration microcalorimetry.

[3] = target: T1, recombinant human IL4 …; test: cell-based or functional assay; remark: listed apart in the source
[4] = target: T1, recombinant human IL4 …; test: titration microcalorimetry, pH 7.4, 150 mM NaCl, 25° C.
Experimental: as §1

[5] = target: T2, 125I-labelled recombinant human IL4 (human, UniProt P05112 25-153, radioiodinated (125I); 'thought to be iodinated at the accessible tyrosine, residue 124'); test: receptor binding assay (RBA): inhibition of 125I-rhIL4 binding to gibbon MLA cells
T2 sequence (looked up): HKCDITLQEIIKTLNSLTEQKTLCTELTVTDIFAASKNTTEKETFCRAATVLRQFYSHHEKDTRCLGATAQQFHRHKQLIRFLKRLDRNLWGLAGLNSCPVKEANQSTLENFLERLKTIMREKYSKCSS
Experimental: The ability of 3B9 to inhibit the binding of IL4 to its receptor was studied using ¹²⁵I-rhIL4 binding to the gibbon cell line, MLA [ATCC TIB201], that bears approximately 6000 receptors per cell. MLA cells were incubated with […] for 30 minutes at 37° C. Uptake of radioactivity was determined in a gamma counter after separation of cell bound ¹²⁵I-IL4 by centrifugation through an oil-gradient. Non-specific binding was determined by incubating in the presence of a 100-fold molar excess of unlabelled IL4 [Park et al, J. Exp. Med., 166:476-488 (1987)]. The IC₅₀ value for unlabeled IL4 in this assay was 22 pM when the amount of (added) IL4 was 83 pM. For intact murine (IgG) 3B9 the IC₅₀ was 63 pM, and 93 pM for the Fab fragment.

Row | Binder | IC50, B cell proliferation (3H-thymidine incorporation, IL4-stimulated human tonsillar B lymphocytes) [1] | IC50, IgE synthesis (IL4-stimulated human peripheral blood lymphocytes, IgE ELISA) [1] | Kd [2] [pM] | IC50, inhibition of IgE secretion in the presence of 667 pM IL4 [3] [nM] | IC50, inhibition of IgE secretion in the presence of 1.7 nM IL4 [3] [pM] | -TΔS [4] [kcal/mol IL4] | ΔG [4] [kcal/mol IL4] | ΔH [4] [kcal/mol IL4] | IC50, B cell proliferation [1] [pM] | IC50, CD23 induction [1] [pM] | IC50, IgE synthesis [1] [pM] | IC50, T cell proliferation [1] [pM] | IC50 [5] [pM]
1 | murine MAb 3B9 (antibody, IgG1, V domains shown, Mouse hybridoma antibody, isotype IgG1, kappa light chain; also called 3B9 (murine); murine 3B9) VH: QVTLKESGPGILQPSQTLSLTCSFSGFSLSTSGMGVSWIRQPSGKGLEWLAHIYWDDDKRYNPSLKSRLTISKDTSSNQVFLKITSVDTADTATYYCARRETVFYWYFDVWGAGTTVTVSS VL: DIVLTQSPASLAVSLGQRATISCKASQSVDYDGDSYMNWYQQKPGQPPKLLIYAASNLESGIPARFSGSGSGTDFTLNIHPVEEEDAATYYCQQSNEDPPTFGGGTKLEIKR | 103 pM and 79 pM and 120 pM | 658 pM and 370 pM and 1070 pM | 19 | 0.65 | 1900 | 7.2 | -13.3 | -20.5 | – | – | – | – | –
2 | Fab fragment of murine MAb 3B9 (Fab, V domains shown, Fab fragment of the murine 3B9 antibody; also called 3B9 Fab; Murine 3B9 (Fab)) VH: QVTLKESGPGILQPSQTLSLTCSFSGFSLSTSGMGVSWIRQPSGKGLEWLAHIYWDDDKRYNPSLKSRLTISKDTSSNQVFLKITSVDTADTATYYCARRETVFYWYFDVWGAGTTVTVSS VL: DIVLTQSPASLAVSLGQRATISCKASQSVDYDGDSYMNWYQQKPGQPPKLLIYAASNLESGIPARFSGSGSGTDFTLNIHPVEEEDAATYYCQQSNEDPPTFGGGTKLEIKR | – | – | – | – | 5000 | – | – | – | 393 | 216 | 1170 | 108 | 93
